# From paper PMC4336329 (PLoS ONE, 2015)
# About 2,200 (0.71%) of roughly 310,000 compounds showed an effect of 50% or more. The effect is printed as a negative number. Some of the results follow.
# Biological target: human ether-à-go-go-related gene (hERG) potassium channel (human, UniProt Q12809)
# Test: primary screen, population patch clamp on CHO cells stably expressing hERG
# Sequence of human ether-à-go-go-related gene (hERG) potassium channel (Q12809 whole entry, looked up): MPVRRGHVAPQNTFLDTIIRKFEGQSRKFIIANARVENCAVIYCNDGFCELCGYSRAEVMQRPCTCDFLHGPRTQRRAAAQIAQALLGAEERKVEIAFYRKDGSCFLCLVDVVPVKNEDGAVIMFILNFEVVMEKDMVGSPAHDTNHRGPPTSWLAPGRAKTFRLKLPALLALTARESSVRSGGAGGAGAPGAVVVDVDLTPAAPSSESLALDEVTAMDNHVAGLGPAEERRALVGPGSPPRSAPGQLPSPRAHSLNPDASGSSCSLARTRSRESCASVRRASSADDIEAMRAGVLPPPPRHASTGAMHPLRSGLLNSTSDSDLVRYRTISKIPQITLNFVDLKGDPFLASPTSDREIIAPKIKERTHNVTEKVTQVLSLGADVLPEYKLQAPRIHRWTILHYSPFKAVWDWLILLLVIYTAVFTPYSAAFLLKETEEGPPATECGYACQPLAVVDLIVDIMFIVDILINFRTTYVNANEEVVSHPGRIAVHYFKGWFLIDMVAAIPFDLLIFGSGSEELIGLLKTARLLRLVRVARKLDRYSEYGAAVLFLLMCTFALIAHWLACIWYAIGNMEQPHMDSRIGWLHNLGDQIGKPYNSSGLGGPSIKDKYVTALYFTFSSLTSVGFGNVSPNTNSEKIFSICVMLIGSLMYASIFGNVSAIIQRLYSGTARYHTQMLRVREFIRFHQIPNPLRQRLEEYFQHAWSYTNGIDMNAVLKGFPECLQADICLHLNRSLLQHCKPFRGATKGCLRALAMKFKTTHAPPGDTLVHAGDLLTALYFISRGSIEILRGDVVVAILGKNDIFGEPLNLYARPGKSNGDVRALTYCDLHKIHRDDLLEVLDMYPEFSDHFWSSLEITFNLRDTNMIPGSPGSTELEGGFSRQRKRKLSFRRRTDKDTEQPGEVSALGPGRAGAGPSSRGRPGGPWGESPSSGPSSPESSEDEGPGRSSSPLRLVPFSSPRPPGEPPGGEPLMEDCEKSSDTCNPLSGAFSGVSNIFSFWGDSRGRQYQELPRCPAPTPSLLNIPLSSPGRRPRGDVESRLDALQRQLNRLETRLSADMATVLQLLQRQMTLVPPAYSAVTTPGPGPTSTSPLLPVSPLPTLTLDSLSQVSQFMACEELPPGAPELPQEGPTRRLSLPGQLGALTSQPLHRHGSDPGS
row,SMILES,"hERG current change (%, negative = inhibition) at 1uM"
1,CCc1nc2c(c(=O)[nH]1)C(CC)(CC)Cc1ccccc1-2,0.0309%
2,CC(=O)C1C(c2ccc(C)cc2)c2c(n[nH]c2C)CC1(C)O (stereo not drawn),9.65%
3,CCOC(=O)c1cccc(NC(=O)C(NS(=O)(=O)c2ccc3c(c2)CCN3C(C)=O)C(C)C)c1 (stereo not drawn),3.7%
4,O=C(CNC(=O)c1ccco1)OCc1c(F)cccc1Cl,-4.84%
5,Cc1cccc(N(C(=O)c2csnn2)C(C(=O)NC2CCCC2)c2ccncc2)c1 (stereo not drawn),14.8%
6,Cc1[nH]nc(SCC(=O)N2CCCCC2)c1[N+](=O)[O-],16.1%
7,COc1ccc(NC2c3ccccc3C(=O)N2Cc2ccco2)cc1OC (stereo not drawn),5.58%
8,CCOC(=O)c1ccccc1NC(=S)N1CC(C)CC(C)C1 (stereo not drawn),1.13%
9,CCOc1ccc(OCC(O)CN2CCN(S(=O)(=O)c3cccc(C(F)(F)F)c3)CC2)cc1.O=C(O)C(=O)O (stereo not drawn),14.1%
10,CCc1ccccc1NC(=O)CN1CCN(C(=O)CNC(=O)c2ccc(N3CCCC3=O)cc2)CC1,-1.22%
11,O=C(Nc1ccccc1N1CCOCC1)C1Cc2ccccc2CN1C(=O)c1ccco1 (stereo not drawn),-3.76%
12,O=C1CCC(/C=C/c2ccccc2)=NN1Cc1ccc(Cl)c(Cl)c1,2.78%
13,CCOC(=O)c1ccc(COc2ccc(C(C)C)cc2)o1,6.45%
14,O=C(Nc1ccccc1Cl)NC1(C(=O)NCc2ccncc2)CCCCC1,11.1%
15,CC(C)=CC(=O)Nc1ccc(S(=O)(=O)Nc2onc(C)c2C)cc1,20.9%
16,COc1ccccc1CN1CC(C(=O)N(C)CCc2nc3ccc(F)cc3[nH]2)CCC1=O (stereo not drawn),8.15%
17,Cn1cc(C(=O)c2ccc(F)cc2)cc1-c1nc2ccccc2n1C,0.0662%
18,COCCn1c(-c2ccccc2F)n[nH]c1=S,16.6%
19,CCCCN(C)C(=O)c1nc2ccccn2c1CNC1CCC1,4.89%

row,SMILES,"hERG current change (%, negative = inhibition) at 1uM"
1,CCOC(=O)CCNC(=O)N1CCCC(Cc2ccccc2)(C(=O)OCC)C1 (stereo not drawn),9.25%
2,CCOC(=O)c1c(C)[nH]c(C)c1S(=O)(=O)N1CCN(c2ccc([N+](=O)[O-])cc2)CC1,1.42%
3,COc1ccc(CNCc2cc(C)c(OC)cc2C)c(OC)c1.O=C(O)C(=O)O,-35%
4,CC1(C)OC(C)(C)/C(=C/Nc2ccccc2)C1=O,10.6%
5,Cc1ccc(NC(Cc2cc(C)no2)c2ccccc2)cc1 (stereo not drawn),-2.67%
6,COc1ccccc1N1CCN(CC(=O)N(CC(C)C)c2c(N)n(CC(C)C)c(=O)[nH]c2=O)CC1,0.707%
7,CNC(=S)N1N=C(c2ccc(OC)cc2)CC1c1ccc(N(C)C)cc1 (stereo not drawn),0.367%
8,O=C(COC(=O)c1cc(-c2cccs2)nn1-c1ccccc1)Nc1cc([N+](=O)[O-])ccc1Cl,9.05%
9,O=c1cc(N2CCc3ccccc32)[nH]c(=O)n1-c1ccccc1,8.14%
10,O=C(c1ccc(-c2ccccc2)cc1)c1ccccc1C(=O)N1CCOCC1,-0.441%
11,O=C(Nc1ccccc1)N1CCC(C(=O)N2CCN(c3ccccc3F)CC2)CC1,1.91%
12,O=C(O)CCC(=O)Nc1ccc(N2CCOCC2)cc1,5.87%
13,Cc1ccc(C(=O)N2N=C(c3ccccc3)CC2(O)C(F)(F)F)o1 (stereo not drawn),15.9%
14,Cc1cc(Br)ccc1NC(=O)CNC(=O)c1ccc(-n2cncn2)c([N+](=O)[O-])c1,-19.5%
15,COc1ccc(C(=O)NC(=S)NCc2cccnc2)cc1OC,-8.98%
16,CN1CCC(OC(=O)Cc2ccccc2)CC1.Cl,4.12%
17,COC(=O)N/N=C/c1c(C)cc(C)cc1C,10.5%
18,CCOc1ccc(N2C(=O)CC(Sc3nccc(C)n3)C2=O)cc1 (stereo not drawn),1.36%
19,CCc1cccc(NS(=O)(=O)c2ccc3c(c2)NC(=O)CO3)c1,10.9%

row,SMILES,"hERG current change (%, negative = inhibition) at 1uM"
1,Cc1ccc(N2C(=O)C3C4CCC(O4)C3C2=O)c(OC(F)F)c1 (stereo not drawn),12.7%
2,O=c1c2c([nH]n1-c1ccccc1)CCCC2,10.8%
3,O=C(Nc1cccc2nsnc12)c1ccc2c(c1)OCO2,1.7%
4,Cc1cc(=O)[nH]c(N/N=C2/CCCC/C2=C\c2ccccc2)n1,6.37%
5,COc1ccc(NC(=O)C2CCN(C(=O)C3CC(=O)N(c4ccc(C)cc4)C3)CC2)c(OC)c1 (stereo not drawn),0.847%
6,CN(c1ccc(C(=O)NCCC2=CCCCC2)cc1)S(C)(=O)=O,12.3%
7,O=C(CN1CCN(CC(=O)Nc2ccccn2)CC1)Nc1ccccn1,-9.95%
8,COc1ccc(CCNC(=O)CC2Nc3ccccc3NC2=O)cc1 (stereo not drawn),10.4%
9,CCn1c2c(c3cc(OCC(C)C)ccc31)CCCC2=O,13.3%
10,COc1ccc2c(c1)OC(O)(C(F)F)CC2=O (stereo not drawn),16.4%
11,CCOc1cc(C(=O)NC2CCCCCCC2)cc(OCC)c1OCC,10.3%
12,COc1cc(S(=O)(=O)N2CCN(Cc3ccc4c(c3)OCO4)CC2)c(C)cc1C,3.61%
13,O=C(NCC1CCCO1)c1cc2ccccc2[nH]1 (stereo not drawn),10.3%
14,Nc1cc(=O)[nH]n1C1CCCCC1,-0.227%
15,COc1ccc(C(=O)Nc2ccc(NC(C)=O)cc2)cc1S(=O)(=O)N1CCCCC1C (stereo not drawn),23.2%
16,COc1ccc(N=C2SC(CC(=O)Nc3ccccc3OC)C(=O)N2Cc2ccco2)cc1 (stereo not drawn),4.75%
17,CCN(CC)CCN1CNC(=S)N(c2ccccc2OC)C1,11.7%
18,C/C(=N/NC(=O)CNC(=O)c1cccnc1)c1cccc([N+](=O)[O-])c1,4.23%
19,CN(c1ccc(OC(=O)CN2C(=O)NC3(CCCC3)C2=O)cc1)S(=O)(=O)c1ccccc1,15.9%
